# Over roughly 33,000 sequences, “E-score (-0.5 to 0.5)” has its median near -0.035; the highest 2% begin near 0.35. The list shows a part of the results.
# Target: T1, Pdr3 (UniProt P33200)
# T1 sequence: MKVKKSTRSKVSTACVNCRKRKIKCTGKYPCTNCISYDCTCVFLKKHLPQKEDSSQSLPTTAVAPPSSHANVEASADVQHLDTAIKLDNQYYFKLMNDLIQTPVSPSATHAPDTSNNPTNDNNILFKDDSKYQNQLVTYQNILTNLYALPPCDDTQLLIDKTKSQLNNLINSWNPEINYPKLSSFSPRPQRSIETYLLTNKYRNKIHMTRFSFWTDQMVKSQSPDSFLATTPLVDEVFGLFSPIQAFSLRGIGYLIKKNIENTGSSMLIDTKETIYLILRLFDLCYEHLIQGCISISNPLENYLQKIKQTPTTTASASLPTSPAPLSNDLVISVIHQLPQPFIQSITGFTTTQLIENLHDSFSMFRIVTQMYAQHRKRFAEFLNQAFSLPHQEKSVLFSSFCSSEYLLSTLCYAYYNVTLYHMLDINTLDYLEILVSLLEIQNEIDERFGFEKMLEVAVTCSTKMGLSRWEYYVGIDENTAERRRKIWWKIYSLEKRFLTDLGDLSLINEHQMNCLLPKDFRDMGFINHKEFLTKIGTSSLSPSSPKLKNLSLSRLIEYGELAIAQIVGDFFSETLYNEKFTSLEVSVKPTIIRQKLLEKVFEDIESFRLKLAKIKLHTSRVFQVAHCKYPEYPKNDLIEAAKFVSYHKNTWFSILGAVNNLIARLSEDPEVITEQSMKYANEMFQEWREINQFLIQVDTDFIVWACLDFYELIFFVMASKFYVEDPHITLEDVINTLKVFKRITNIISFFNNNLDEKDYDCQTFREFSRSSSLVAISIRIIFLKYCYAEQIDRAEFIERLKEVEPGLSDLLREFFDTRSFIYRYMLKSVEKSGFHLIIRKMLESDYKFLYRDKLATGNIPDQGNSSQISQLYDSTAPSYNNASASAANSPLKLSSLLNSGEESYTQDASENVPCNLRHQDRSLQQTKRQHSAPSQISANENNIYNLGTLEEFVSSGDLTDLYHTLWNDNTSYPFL
# Assay: PBM E-score (8-mer binding enrichment) (E-score (-0.5 to 0.5)); higher = stronger / more preferred TF binding; most listed sequences are background and not binding sites
# Conditions: protein concentration: 200 nM; construct: GST-full length
# Summary of the method: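 GST-tagged yeast TFs (full-length or DNA-binding domain) were made by PURExpress in vitro transcription/translation and applied at about 100-200 nM to universal all-10-mer Agilent arrays. The arrays were made double-stranded by primer extension, on fresh or once-stripped slides. Bound protein was detected with fluorescent anti-GST, and scans were normalised with masliner. Each ungapped eight-base word, pooled with its reverse complement, received an E-score (modified Wilcoxon-Mann-Whitney statistic) from the Universal PBM Analysis Suite.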
row,Sequence,PBM E-score
1,CTGTGAGA,-0.158
2,AAGCGCTC,-0.00902
3,ATTCCTAC,-0.0807
4,AAGTCAAT,-0.134
5,ATTATCCG,0.388
6,AGTCACGA,-0.132
7,CGTTACTA,-0.223
8,CCGGAGGC,0.292
9,CTCTCACA,0.00281
10,CGTTCTGA,-0.128
11,GCAGTTCA,-0.135
12,AGAACTCG,-0.0518
13,CAGGTTTC,0.03
14,CCGGGTTA,0.353
15,AAGACCGA,0.0803
16,AGCGCTAT,0.134
17,CCACCCAC,-0.0558
18,AGTGAGGC,0.0166
19,GCCTGCTA,-0.111
20,AGCACGAA,0.0983
21,CTTATGCA,-0.231
22,GTAAGTAC,0.0168
23,AGGTTCTC,0.0533
24,CTTCGGCA,0.153
25,ACCAAATC,0.031

row,Sequence,PBM E-score
1,AGATTACC,0.0293
2,GAGACTTA,-0.319
3,AGCCATAA,-0.143
4,AGACATCC,0.0233
5,CTCCATGA,-0.0454
6,AAGCGTAA,-0.111
7,TCAAACGA,-0.15
8,GACATATA,0.0101
9,CATTTTAC,0.141
10,ATTCATTC,0.135
11,AGGCCCCT,-0.241
12,TACTGCGA,-0.1
13,CACGGACA,0.355
14,ACGAGTTA,-0.116
15,CCCCAAGA,-0.154
16,GCAGCTTA,-0.121
17,CGCTATTC,0.105
18,AATGCCTC,-0.142
19,CAGCCGTC,0.134
20,ATTGTATG,-0.051
21,TAGTAACA,-0.00956
22,AAATTGTA,-0.0156
23,CCTCCCAC,-0.0847
24,TAATGGTA,-0.146
25,TAATTGCA,0.0881

row,Sequence,PBM E-score
1,ATACCGCC,0.212
2,ATCTGGCC,0.0154
3,GTCTTGTA,-0.206
4,GTCTAGAC,-0.293
5,ACTTACCC,0.0368
6,CCTGATGA,0.0476
7,AAGAATCG,0.132
8,GACAACGC,-0.0869
9,ACTTCGTA,-0.166
10,AGCGTCAG,-0.239
11,GTAAGCTA,0.0325
12,CAAACAAC,0.0713
13,ATAAACCC,0.0891
14,ACTTCTGA,-0.109
15,ACTACCTC,-0.108
16,CCCACACA,-0.0792
17,ACGACCTG,-0.304
18,TAAGCCGA,0.0963
19,AAGTGAGC,-0.129
20,GGGGATGA,0.0246
21,AACTCCTT,-0.0186
22,GAGTCATC,0.00177
23,CTGGATGC,-0.212
24,CCGTTGCA,0.0645
25,ACGTGCAG,-0.0936

row,Sequence,PBM E-score
1,GTTATGAA,-0.131
2,CAATTGAA,-0.0875
3,ACCTACCG,-0.0917
4,CGCTGAAG,0.0229
5,ACCTCGCG,0.0282
6,CTCTTTGA,-0.245
7,ATCAATTG,0.0139
8,GCCACCCA,-0.078
9,ATGAAGGA,-0.0858
10,GACAGAAC,0.0194
11,CTGCAAGA,-0.0813
12,ATAACCAT,-0.0749
13,ACCCCATG,-0.0104
14,GCTCCATA,-0.0492
15,CGTGCTCC,0.259
16,ATTATCGG,0.17
17,GGGAGTCA,-0.166
18,ACCCCGGG,0.376
19,AGAGTCCA,-0.0906
20,ATTCGGTG,-0.0461
21,AAGCTACT,-0.124
22,CTACCGGC,-0.0343
23,ACCTTGCG,0.0636
24,CAAAGAAA,-0.112
25,GACTGACA,-0.0824

row,Sequence,PBM E-score
1,GACTCTCC,-0.0131
2,AAATCCGT,0.246
3,AACAGCTC,0.00466
4,GCGCCCCA,0.145
5,AGGAAATG,-0.0576
6,TAAGTAAA,-0.213
7,AACCGCCT,0.167
8,ACGATTAT,0.174
9,AGCAGGTG,-0.0137
10,ATATGAAG,0.0475
11,CACTAGCC,0.0786
12,ATGTGCAA,-0.102
13,CACAAAAA,0.0906
14,AAAGTTAG,0.0776
15,ATGTCGCC,-0.0448
16,CATACCAG,-0.0428
17,GCTGGTTA,-0.123
18,ACTGTACG,-0.224
19,CAAGCCAG,-0.185
20,AGCCTATC,-0.154
21,CAAATGGA,-0.0634
22,CCGTACAA,-0.00282
23,CGAGCCAG,0.206
24,ATAACGTG,-0.107
25,ACACTGGT,-0.211

row,Sequence,PBM E-score
1,AATCCACC,-0.0507
2,CAGTTGCG,0.0668
3,AAGCTAAA,-0.187
4,ACAGTTTG,0.00196
5,ATTTTGAG,-0.0977
6,CGGTCACC,0.0786
7,AGCGGGCA,-0.048
8,ACTATACA,-0.0136
9,CGAGGGTA,-0.0561
10,TAATATGA,0.114
11,CGTAATGA,-0.131
12,ATAAGGAT,-0.118
13,ACAGCTTA,-0.166
14,CTTGAAGA,-0.267
15,ATTGCGTA,-0.191
16,AAGTGGCC,0.0392
17,AAGTACTA,0.0806
18,AATGACGT,-0.0588
19,ATAGCTAT,-0.0482
20,CATCCGCG,0.359
21,TGATCCAA,-0.0351
22,CGGCGTCC,0.234
23,CGAGCCCA,-0.112
24,AGTCGCCC,-0.199
25,ACCGCTAC,-0.0939

row,Sequence,PBM E-score
1,AAGTCATT,-0.138
2,CAATGAGC,-0.00488
3,TATAAAAA,0.0695
4,AGAGGTAG,-0.21
5,GCTGGTAA,-0.182
6,CGGCATCA,0.204
7,CTCGAGAA,-0.149
8,GTAAAACA,-0.231
9,AGTAGTTA,-0.0357
10,AGTCGGAT,0.219
11,CGCTATGA,-0.0676
12,ATGCTAGG,-0.156
13,AACTCTCC,0.0377
14,AGACATGC,-0.0916
15,TGCGTGAA,0.0465
16,CGAAACAG,0.0313
17,CAGCTGTC,-0.105
18,AGGTGCAT,-0.034
19,GCTACCAC,-0.16
20,AACACCGA,0.14
21,AAGGGGTA,-0.24
22,ATGCATGA,0.0809
